Data reported in a collection of fitness landscapes (doi:10.1016/j.celrep.2020.107928).
Over roughly 81,000 sequences, “one-hybrid fitness for binding NBS DNA” has its median near -0.1; the highest 2% begin near 0.36. This is one part of the list.

B1: Caulobacter ParB omega fusion; a variant is named by its letters at X, in order, B8GW30 (parent)
chain: MESVVVGEPGMSEGRRGLGRGLSALLGEVDAAPAQAPGEQLGGSREAPIEILQRNPDQPRRTFREEDLEDLSNSIREKGVLQPILVRPSPDTAGEYQIVAGERAWRAAQRAGLKTVPIMVRELDDLAVLEIGIIENVQRADLNVLEEALSYKVLMEKFERTQENIAQTIGKSXSHVANXMRLLXLPDEVQSYLVSGELTAXHARAIAAAADPVALAKQIIEGGLSVRETEALARKAPNLSAGKSKGGRPPRVKDTDTQALESDLSSVLGLDVSIDHRGSTGTLTITYATLEQLDDLCNRLTRGI

Variants of: B1
Assay: one-hybrid fitness for binding NBS DNA (the Noc-binding site; scaled: cognate 1, non-cognate 0); higher = stronger binding
Settings: with NBS DNA site
Summary of the method: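 In E. coli USO, a HIS3 reporter with its site placed 19 bp from the promoter was used to select Caulobacter ParB variants randomised at four specificity codons. Growth lasted 48 hours at 37°C on histidine-free M9 containing 0.1 mM IPTG and 5 mM 3-AT. Fitness was taken as the log change in variant-to-wild-type read ratio from Illumina sequencing of pre- and post-selection plasmids, rescaled between the non-cognate and cognate sites.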

Row | Variant | one-hybrid fitness for binding NBS DNA
1 | AWDV | ≤ 0.2
2 | PFLC | ≤ 0.2
3 | SYLT | ≤ 0.2
4 | ARKW | ≤ 0.2
5 | TMEC | ≤ 0.2
6 | STDW | ≤ 0.2
7 | QCWF | ≤ 0.2
8 | RPSD | ≤ 0.2
9 | RNVC | ≤ 0.2
10 | QGPN | ≤ 0.2
11 | TGRW | ≤ 0.2
12 | EACC | ≤ 0.2
13 | HYSC | ≤ 0.2
14 | RTFD | ≤ 0.2
15 | MHNG | ≤ 0.2
16 | TNNL | ≤ 0.2
17 | QSND | ≤ 0.2
18 | YHTS | ≤ 0.2
19 | HHAP | ≤ 0.2
20 | PADS | ≤ 0.2
21 | VRVA | ≤ 0.2
22 | GPCM | ≤ 0.2
23 | KCEF | ≤ 0.2
24 | VKTL | ≤ 0.2
25 | IVLP | ≤ 0.2
26 | PVAD | ≤ 0.2

Row | Variant | one-hybrid fitness for binding NBS DNA
27 | LSQT | ≤ 0.2
28 | NRCT | ≤ 0.2
29 | AANV | ≤ 0.2
30 | DPAQ | ≤ 0.2
31 | PAGA | ≤ 0.2
32 | EMGR | ≤ 0.2
33 | MTQV | ≤ 0.2
34 | TLMA | ≤ 0.2
35 | QTLV | ≤ 0.2
36 | MRSW | ≤ 0.2
37 | LFGL | ≤ 0.2
38 | TRKA | 0.345
39 | KPKG | ≤ 0.2
40 | TETL | ≤ 0.2
41 | LKRT | ≤ 0.2
42 | NRDV | ≤ 0.2
43 | CEKR | ≤ 0.2
44 | AMER | ≤ 0.2
45 | TLER | ≤ 0.2
46 | RQMQ | ≤ 0.2
47 | PDKR | ≤ 0.2
48 | SRMA | ≤ 0.2
49 | SNTT | ≤ 0.2
50 | PIIG | ≤ 0.2
51 | PIIC | ≤ 0.2
52 | RKQS | 0.543

Row | Variant | one-hybrid fitness for binding NBS DNA
53 | HNYS | ≤ 0.2
54 | CIMG | ≤ 0.2
55 | LQRE | ≤ 0.2
56 | CMYG | ≤ 0.2
57 | VCTF | ≤ 0.2
58 | IKRS | ≤ 0.2
59 | HIMC | ≤ 0.2
60 | EKNL | ≤ 0.2
61 | CHGS | ≤ 0.2
62 | NITR | ≤ 0.2
63 | LNHS | ≤ 0.2
64 | RHSW | ≤ 0.2
65 | GFHC | ≤ 0.2
66 | EQYG | ≤ 0.2
67 | NMHW | ≤ 0.2
68 | VNRL | ≤ 0.2
69 | MHVR | ≤ 0.2
70 | ASNC | ≤ 0.2
71 | IYMV | ≤ 0.2
72 | TSLK | ≤ 0.2
73 | SMIT | ≤ 0.2
74 | QDFR | ≤ 0.2
75 | NAPS | ≤ 0.2
76 | FLGN | ≤ 0.2
77 | ADDC | ≤ 0.2
78 | GFRY | ≤ 0.2

Row | Variant | one-hybrid fitness for binding NBS DNA
79 | PCFE | ≤ 0.2
80 | DHVR | ≤ 0.2
81 | HNRV | ≤ 0.2
82 | PSYM | ≤ 0.2
83 | DITS | ≤ 0.2
84 | SFHW | ≤ 0.2
85 | CGGT | ≤ 0.2
86 | HVHR | ≤ 0.2
87 | DPMY | ≤ 0.2
88 | TNGC | ≤ 0.2
89 | RTAF | ≤ 0.2
90 | PVEA | ≤ 0.2
91 | CIAC | ≤ 0.2
92 | YGAS | ≤ 0.2
93 | PTRK | ≤ 0.2
94 | RDPN | ≤ 0.2
95 | MIVR | ≤ 0.2
96 | HIVA | ≤ 0.2
97 | TQDD | ≤ 0.2
98 | VRLK | ≤ 0.2
99 | PLYE | ≤ 0.2
100 | ANSL | ≤ 0.2
101 | VGDL | ≤ 0.2
102 | TRKT | 0.578
103 | QIKL | ≤ 0.2
104 | TPRH | ≤ 0.2

Row | Variant | one-hybrid fitness for binding NBS DNA
105 | CPKP | ≤ 0.2
106 | QFHY | ≤ 0.2
107 | MMQR | ≤ 0.2
108 | WTMG | ≤ 0.2
109 | KLAT | ≤ 0.2
110 | RQTW | ≤ 0.2
111 | RKYF | ≤ 0.2
112 | ISFT | ≤ 0.2
113 | YPER | ≤ 0.2
114 | PSDE | ≤ 0.2
115 | PVCM | ≤ 0.2
116 | CTGR | ≤ 0.2
117 | PAAS | ≤ 0.2
118 | QSCH | ≤ 0.2
119 | PHGC | ≤ 0.2
120 | TPTE | ≤ 0.2
121 | TAPC | ≤ 0.2
122 | SAIQ | ≤ 0.2
123 | PCSC | ≤ 0.2
124 | RRQF | 0.221
125 | DGSS | ≤ 0.2
126 | CMNW | ≤ 0.2
127 | AVRV | ≤ 0.2
128 | NQHA | ≤ 0.2
129 | NKDS | ≤ 0.2
130 | MFRT | ≤ 0.2

Row | Variant | one-hybrid fitness for binding NBS DNA
131 | TMEW | ≤ 0.2
132 | RSAW | ≤ 0.2
133 | WAHL | ≤ 0.2
134 | DEPA | ≤ 0.2
135 | DQSQ | ≤ 0.2
136 | SRKW | ≤ 0.2
137 | NEST | ≤ 0.2
138 | RYPQ | ≤ 0.2
139 | MGSG | ≤ 0.2
140 | NTKY | ≤ 0.2
141 | RADW | ≤ 0.2
142 | TVQG | ≤ 0.2
143 | VVLH | ≤ 0.2
144 | QNFE | ≤ 0.2
145 | YYKE | ≤ 0.2
146 | SNMS | ≤ 0.2
147 | VPVT | ≤ 0.2
148 | CMKE | ≤ 0.2
149 | TVVR | ≤ 0.2
150 | MWMR | ≤ 0.2
151 | KCLN | ≤ 0.2
152 | LIMS | ≤ 0.2
153 | RGKY | ≤ 0.2
